# Laboratory results: the supplement of paper PMC11417369
# The list shows a part of the results.
# Tested on: PF3D7_0420300 AP2 domain 1 (GST-tagged)
# Test: gcPBM binding intensity (ln(normalized median fluorescence intensity)); higher = stronger DNA binding
# Method in brief: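 In this array assay, P. falciparum DNA-binding domains with a GST tag, expressed in E. coli, were applied for 1 h to primer-extended double-stranded 36-bp intergenic genomic probes and negative controls on an Agilent 4 × 180k array. Bound protein was visualised with Alexa488 anti-GST antibody at 488 nm. Binding intensity is the highest Masliner-normalised natural-log median intensity across replicate spots of either probe orientation.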
row,Sequence,gcPBM binding intensity (ln)
1,GTGTAGGCAAAAAGTTGTACGCCTAAAATCTATATA [XGTACX_site8912],9.07
2,TAAAAAGTATATGGTCGTACACTTTTGATTAATACA [XGTACX_site7804],9.18
3,TGTATAGGTACAATAATTATAGAGTAATTGACATTA [GTGCAC_negctrl_site183],9.1
4,ACTCTCTTATATTAAACACACATATATATATGTATA [CACACA_site2703],9.53
5,TCAAACAAAAAAGAAACACACACTAATTAAATTTTC [CACACA_site1101],9.69
6,AATAATTTGAAGGTGATAGTATTACATGGGAAATCA [CACACA_negctrl_site301],9.32
7,TTTAATTAATAATAATATAAATTGTTCTTTTTTTTT [GTGCAC_negctrl_site176],8.85
8,CATATTTATAAATATAAACACACAACATTATATGCA [CACACA_site9065],9.54
9,GCAAAATAAAGAAGCACACAAAAATGAAATATATAT [CACACA_site3651],9.59
10,TATACGTAATAATATGCACACAAATAAACTTTATAA [CACACA_site9166],9.5
11,ATTTATATATATCATACACACTAATATGTATATTAT [CACACA_site5816],9.42
12,ACTAGTAAATTTATATGTACATATATATATATATAG [XGTACX_site2502],9.23
13,TCTTGGTATATTCAATATATGATTTATATAATTCAA [CACACA_negctrl_site818],9.16
14,AAAAAAAATACATACATACACACATATATATATATA [CACACA_site912],9.43
15,TTATTTTTTTCAACAAGTACTAATACAAAATAAAAC [XGTACX_site6460],9.13
16,TTGTATTATTAAATTATAAAACCTATAATTATGGAT [GTGCAC_negctrl_site340],9.04
17,GATTAAATCGATAATACACACTAAATGTAAAACATT [CACACA_site4248],9.42
18,TGATAACTAAATACATGTACAAATTAAAAAGAAAAA [XGTACX_site3080],9.2
19,TAATGATTATATGACTGTACATTTGTAGGTATAATT [XGTACX_site3373],9.18
20,AGCATATATTAAACATGTACATAAATATATTATATA [XGTACX_site1451],9.25
21,GAATGAATGATAAATTTTTTTTTCTTTTTTTTTTTG [CACACA_negctrl_site333],8.83
22,TGTTATATATATACAAACATACACATTTATAAACAA [TGCATGCA_negctrl_site235],9.48

row,Sequence,gcPBM binding intensity (ln)
1,AAAAAAAGAAAAAAAACACACACAAATATAAATAAA [CACACA_site8309],10
2,GTTCAAATTCTTATACCTTTTTATTGAGCCATAATA [CACACA_negctrl_site210],9.25
3,TATTAATTTCTTTTTTCTCATCACTTTCAAAATGAA [CACACA_negctrl_site1055],8.89
4,TTATGATCATTTATATGTACACATAATTTTTGTGCT [XGTACX_site5568],9.23
5,AACACCAAACAAAGGTGTACATATAGGAAAAAATCT [XGTACX_site1006],9.38
6,TACACGCAGAAACACACACACACACCCATATATATA [CACACA_site637],10.3
7,TATCACATATTATGATGTACAAAGATTCTGACTAAT [XGTACX_site2770],9.12
8,AGAGGGGAAAACATGATGCACTAGTATAACCAAGAA,9.55
9,TAGATATGTCTAAAAAGTACTTTCTATAACAATTCT [XGTACX_site6678],9.01
10,TCATATTATTATATATGTACATACCAATATATTATA [XGTACX_site2988],9.1
11,TTTCCTTATAAAAATACACACAAACTTTCATTAAAA [CACACA_site5953],9.24
12,AGAAATCATCTGAATTGTACTAACAATTTTTTTTAA [XGTACX_site6191],8.96
13,CCCAATAATTAAACAACACACATATATATCTGTAAT [CACACA_site5667],9.71
14,ATAAAATGGGCAAACACACACAAAAAAAAGATATAT [CACACA_site1648],10
15,AGGGGCGAAACAAAGGTGCTTTTATAAAATATGTAA,9.11
16,AGAGAAGAAAACAAAACACACACATATATCTTAATA [CACACA_site8699],9.83
17,AACTTAAAAAAAAAAAAAAAAAAAAAAAAAAAAAAA [GTGCAC_negctrl_site34],8.64
18,CTTAAATCTACTATTTGTACATATTTTATTATTAAA [XGTACX_site6151],9.25
19,TATTATAATAAAATATGTACACACATACACACATAT [XGTACX_site2360],9.92
20,TAGATAAAATTAAAATGTACAAACCTTTTCCCTTAT [XGTACX_site1136],9.13
21,ATATATATATATATATGTACTTATTTATTTTATATA [XGTACX_site8810],9.22
22,ATATATATATATGATACATGCATATATTTTTTCTTC [TGCATGCA_site216],9.44
